We go through 58 molecules from PMC4336329 (PLoS ONE, 2015).

Among all 310,000 compounds or so, about 14,000 (4.5%) showed an effect of 50% or more. The effect is printed as a negative number. The list shows a part of the results.
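Further: peak tail current of the secondary pulse compared with the same well before compound.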

For this assay, the target named is human ether-à-go-go-related gene (hERG) potassium channel (human, UniProt Q12809). Kind of assay: primary screen, population patch clamp on CHO cells stably expressing hERG.
Sequence of human ether-à-go-go-related gene (hERG) potassium channel (Q12809 whole entry, looked up): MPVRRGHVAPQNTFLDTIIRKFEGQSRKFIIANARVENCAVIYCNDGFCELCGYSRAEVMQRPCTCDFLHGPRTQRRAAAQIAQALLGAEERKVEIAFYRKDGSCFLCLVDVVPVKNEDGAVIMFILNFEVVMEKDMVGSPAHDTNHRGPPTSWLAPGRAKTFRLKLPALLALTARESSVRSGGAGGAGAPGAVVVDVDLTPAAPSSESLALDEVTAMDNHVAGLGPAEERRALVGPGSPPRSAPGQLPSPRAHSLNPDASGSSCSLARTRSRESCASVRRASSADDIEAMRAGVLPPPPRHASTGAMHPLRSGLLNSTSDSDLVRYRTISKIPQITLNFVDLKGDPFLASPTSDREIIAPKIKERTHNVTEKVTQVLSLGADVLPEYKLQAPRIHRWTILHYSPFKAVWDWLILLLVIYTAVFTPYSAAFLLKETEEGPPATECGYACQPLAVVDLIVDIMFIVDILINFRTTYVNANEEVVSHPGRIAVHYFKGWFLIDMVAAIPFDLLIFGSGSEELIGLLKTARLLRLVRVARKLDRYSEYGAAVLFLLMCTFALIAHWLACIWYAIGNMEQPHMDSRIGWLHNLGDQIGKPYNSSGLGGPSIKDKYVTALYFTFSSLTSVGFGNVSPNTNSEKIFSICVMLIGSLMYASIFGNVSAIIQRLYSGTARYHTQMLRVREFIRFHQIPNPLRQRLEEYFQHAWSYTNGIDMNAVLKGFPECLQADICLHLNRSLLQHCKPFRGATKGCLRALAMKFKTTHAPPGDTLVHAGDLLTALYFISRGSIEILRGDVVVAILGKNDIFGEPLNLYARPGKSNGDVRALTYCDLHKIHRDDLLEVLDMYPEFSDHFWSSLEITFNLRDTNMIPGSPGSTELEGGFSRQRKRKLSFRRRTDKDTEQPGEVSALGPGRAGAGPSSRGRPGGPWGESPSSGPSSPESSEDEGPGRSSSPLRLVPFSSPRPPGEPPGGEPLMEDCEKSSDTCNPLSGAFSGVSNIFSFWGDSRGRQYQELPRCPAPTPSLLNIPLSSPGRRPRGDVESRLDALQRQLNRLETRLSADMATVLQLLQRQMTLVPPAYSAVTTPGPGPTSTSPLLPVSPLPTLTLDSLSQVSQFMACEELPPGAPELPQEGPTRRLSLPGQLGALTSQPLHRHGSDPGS
Turning to `COc1ccccc1CCC(=O)OCC(=O)Nc1c(C)nn(-c2ccccc2)c1C`, the “hERG current change (%, negative = inhibition) at 10uM” value is on record as -6.38%. In the case of `O=C(Nc1ccc(OC(F)(F)F)cc1)C1CC(c2ccc(F)cc2)=NO1` (stereo not shown), the “hERG current change (%, negative = inhibition) at 10uM” value came to 27.5%. The result for `COC(=O)c1ccc(COc2ccc(CNCc3ccc(Cl)cc3)cc2)cc1` reads -0.414%. The result for `CCN(CC)c1ccc(NC(=O)Cn2c(C(C)NC(=O)c3ccccc3)nc3ccccc32)cc1` (stereo not shown) reads 21.2%; that for `Cc1ccc(O)c(O)c1`, 1.66%; that for `CC(C)c1ccc(S(=O)(=O)N2CCC(C(=O)N3CCC3)CC2)cc1`, -9.72%. In the case of `COC(=O)Cn1c(=NC(=O)c2nc3ccccc3s2)sc2cc(S(C)(=O)=O)ccc21` it was -65.2%. For the molecule `CCCCOc1ccc(CN2CCC(O)CC2)cc1`, the “hERG current change (%, negative = inhibition) at 10uM” value was found to be 3.42%. The result for `COc1ccc(C(=O)C2CCCN(C(=O)c3cccc(Cl)c3F)C2)cc1OC` (stereo not shown) reads -5.57%; that for `Cc1cccc(N(CC(=O)Nc2ccc(F)cc2)S(C)(=O)=O)c1`, -6.2%. The result for `Cc1c(Br)c([N+](=O)[O-])nn1CC(=O)NCc1cccs1` reads -12%. Turning to `CC#CC[N+](C)(C)CCCCCCCC.[Br-]`, the “hERG current change (%, negative = inhibition) at 10uM” value is -40.1%. The result for `O=[N+]([O-])c1ccc(COc2ccc(-c3[nH]ncc3-c3ccc(Cl)cc3)c(O)c2)cc1` reads -4.28%; that for `CCN(CC)S(=O)(=O)c1ccc(C(=O)NCc2ccc(C)cc2)cc1`, -6.85%; that for `CCCNC(=O)c1cc(SC)ccc1Cl`, -12.8%.

In the case of `O=C1Nc2ccccc2C(O)(C(=O)NCc2ccc3c(c2)OCO3)N1c1ccccc1` (stereo not shown), the “hERG current change (%, negative = inhibition) at 10uM” value is listed as 3.85%.

On to `O=C(C1COc2ccccc2O1)N1CCN(c2ccccc2F)CC1` (stereo not shown), for which the “hERG current change (%, negative = inhibition) at 10uM” value is given as 9.47%. Consider `CCOC(=O)C(=O)C1C(=O)Nc2ccccc21` (stereo not shown), for which the “hERG current change (%, negative = inhibition) at 10uM” value is 19.6%. The result for `CS/C(=N/S(=O)(=O)c1ccc(C)cc1)c1ccccc1` reads -3.56%; that for `COc1cc(CNC(C)(C)C)cc(Br)c1OCc1cccs1.Cl`, -28.7%. The result for `CCOC(=O)Cn1c(=O)oc2cc(S(=O)(=O)N3CCCc4ccccc43)ccc21` reads -26.9%; that for `CC(C)(C)C(=O)/C(=C/c1ccncc1)n1cncn1`, -5.13%.

As to `CCOc1ccc(NC(=O)Cc2ccccc2)c([N+](=O)[O-])c1`, the “hERG current change (%, negative = inhibition) at 10uM” value is -7.21%. In the case of `CCCC1C(c2ccccc2)C(C#N)(C#N)C2(C#N)CC1(N)NC2=O` (stereo not shown) it was 6.5%. The result for `COCc1c(C(=O)Nc2ccc(Cl)cc2F)oc2ccccc12` reads 28.4%; that for `CCOc1ccc(-c2cccc(NS(=O)(=O)c3cc([N+](=O)[O-])ccc3Cl)c2)nn1`, -11.2%; that for `O=C(OCC(=O)N1CCN(C(=O)c2ccco2)CC1)c1cn(-c2ccccc2)nc1-c1ccccc1`, -67%. For the molecule `CCn1nnnc1SCC(=O)Nc1sc(C)c(C)c1C#N`, the “hERG current change (%, negative = inhibition) at 10uM” value is given as -2.65%.

As for `Cc1ccc(C(=O)NCC(=O)N2CCN(c3ncccn3)CC2)s1`, the “hERG current change (%, negative = inhibition) at 10uM” value is on record as -22.7%. In the case of `CCOP(=O)(Cc1ccc(C#N)o1)OCC` it was 21.9%; in that of `O=C(c1ccc(O)cc1)c1ccc(C(=O)O)c(C(=O)O)c1`, 23.2%; in that of `O=[N+]([O-])c1cccc(-c2nnc(CNC3CC3)o2)c1`, -26.1%.

With `CC(=O)c1cnc(Nc2ccc(C)cc2)s1`, the “hERG current change (%, negative = inhibition) at 10uM” value was 7.54%. The result for `COc1ccc(CNc2c(CO)cnc3c2cnn3C)cc1` reads -13%; that for `Br.Brc1ccc(C2=Nn3c(nnc3-c3cccnc3)SC2)s1`, -2.26%; that for `Cc1ccc2c(C)c(C(=O)N3CCC(O)(c4ccccc4)CC3)oc2c1C`, 10.9%. Consider `CC(c1ccco1)N(C(=O)COc1ccc(Cl)cc1Cl)c1ccccn1` (stereo not shown), for which the “hERG current change (%, negative = inhibition) at 10uM” value is reported as -18.5%. The result for `CCc1sc(C(=O)Nc2ccccc2N2CCOCC2)cc1C` reads -17.9%; that for `O=C(NCc1ccncc1)c1nc(-c2cccs2)no1`, -12.5%. Turning to `CCCCc1ccc(-c2nc(NC(=O)C3C4CCC(O4)C3C(=O)O)sc2C)cc1` (stereo not shown), the “hERG current change (%, negative = inhibition) at 10uM” value came to 1.03%. In the case of `O=C(CSc1nccn(-c2ccc3c(c2)OCCO3)c1=O)Nc1ccccc1` it was -1.69%.

In the case of `COc1ccc(/C=C/C(=O)OCC(=O)c2c(C)[nH]c3ccccc23)cc1OC`, the “hERG current change (%, negative = inhibition) at 10uM” value is -0.339%. In the case of `CCCc1cc(=O)oc2c(C)c(O)c(CN3CCCCC3)cc12` it was -22.9%. In the case of `COC(=O)CSc1nc(N2CCOCC2)c2c(c1C#N)CCCC2` it was -12.3%; in that of `COc1ccc(OC)c(S(=O)(=O)N(C)CC(=O)O)c1`, -3.34%; in that of `CCc1c(C)sc(NC(=O)CN2CCN(C(=O)c3ccco3)CC2)c1C(=O)OC`, -39.7%. As for `COc1ccc(C2NC(=O)NC(C)=C2C(=O)OCc2ccc3c(c2)OCO3)cc1OC` (stereo not shown), the “hERG current change (%, negative = inhibition) at 10uM” value was 1.09%. Consider `COc1cc(OC)cc(C(=O)N2CCC(C(=O)NCCc3ccccc3)CC2)c1`, for which the “hERG current change (%, negative = inhibition) at 10uM” value was determined as 6.04%.

Consider `c1ccc2c(-c3nn[nH]n3)cccc2c1`, for which the “hERG current change (%, negative = inhibition) at 10uM” value was 8.31%.

As for `Cc1ccccc1S(=O)(=O)c1c(C)cc(C)n(CC(C)C)c1=O`, the “hERG current change (%, negative = inhibition) at 10uM” value is recorded as 9.99%. In the case of `O=C(Nc1ccccc1)N1CCCC(c2nc(-c3cccs3)no2)C1` (stereo not shown) it was -24.4%; in that of `COc1ccc(/C=N\NC(=O)c2ccccc2Br)cc1COc1ccc(F)cc1`, 17.2%. The result for `CC(C)Oc1ccc(-c2nn(-c3ccccc3)cc2/C=c2\sc3ncnn3c2=O)cc1` reads -1.06%; that for `COc1cc([N+](=O)[O-])ccc1NC(=O)N1CCCCCC1`, -12.9%. Consider `CS(=O)(=O)c1ccc2nc(NC(=O)C3CC(=O)N(c4ccccc4)C3)sc2c1` (stereo not shown), for which the “hERG current change (%, negative = inhibition) at 10uM” value was -4.25%. In the case of `O=C(CSC1=NCCN1)NC1CCCCCC1` it was -8.6%. The result for `Cc1cc(=O)n2[nH]c(SCc3ccccc3)nc2n1` reads 5.28%. The result for `CCCCc1nnc(NC(=O)CSc2nc(O)c(-c3ccccc3)c(=O)[nH]2)s1` reads 1.48%.
